According to PubChem BioAssay AID588591 (National Center for Advancing Translational Sciences (NCATS), 2011):
The whole screen tested about 390,000 compounds, of which about 4,700 (1.2%) were called active. This list was built around the results that the source calls inconclusive (neither active nor inactive); the mix of calls is not that of the screen. The call rests on the fitted dose curve; in most records, active means well fitted inhibition curve with a large enough effect; inconclusive means small, poorly fitted or top-dose-only effect, or another doubt; inactive means no such curve, though single readings can be large or run the other way. Where the call is inconclusive, the potency comes from a doubtful curve fit.
On the % scale 0 is the no-effect control and ±100 the full control effect; potency means the concentration at half of the fitted maximal effect; tags describe the fitted curve by direction and shape.

Each molecule was assayed against DNA polymerase eta (Homo sapiens) (UniProt Q9Y253) (assay: qHTS for Inhibitors of Polymerase Eta). Conditions: recombinant Pol eta, fluorescent DNA replication assay; series mostly up to 114 µM; activity change, negative = inhibition: at the top concentration.
Sequence of UniProt Q9Y253 (Q9Y253 whole entry, looked up): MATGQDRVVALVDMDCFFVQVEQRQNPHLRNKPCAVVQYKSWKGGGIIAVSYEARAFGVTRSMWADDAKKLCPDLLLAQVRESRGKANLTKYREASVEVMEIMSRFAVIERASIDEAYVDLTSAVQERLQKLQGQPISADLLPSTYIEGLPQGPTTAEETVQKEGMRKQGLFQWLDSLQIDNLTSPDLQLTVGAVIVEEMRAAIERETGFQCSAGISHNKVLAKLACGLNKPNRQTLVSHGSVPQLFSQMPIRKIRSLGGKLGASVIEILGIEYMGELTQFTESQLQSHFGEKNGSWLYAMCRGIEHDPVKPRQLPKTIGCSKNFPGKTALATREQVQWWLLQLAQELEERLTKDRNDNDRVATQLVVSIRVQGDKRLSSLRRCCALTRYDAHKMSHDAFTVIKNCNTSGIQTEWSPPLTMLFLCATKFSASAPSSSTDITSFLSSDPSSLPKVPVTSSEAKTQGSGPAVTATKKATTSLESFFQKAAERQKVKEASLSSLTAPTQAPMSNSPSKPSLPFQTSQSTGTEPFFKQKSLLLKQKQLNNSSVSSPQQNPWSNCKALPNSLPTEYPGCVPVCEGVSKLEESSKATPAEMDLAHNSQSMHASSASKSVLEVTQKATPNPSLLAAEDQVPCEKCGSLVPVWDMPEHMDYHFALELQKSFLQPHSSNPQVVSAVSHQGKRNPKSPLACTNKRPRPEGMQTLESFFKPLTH
Summary of the method: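 Fluorescent replication assay: 50 nM final substrate added after a 15 min room-temperature compound preincubation with 10 nM enzyme. Signal taken at 0 min and again at 10 min.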
For `O=C(Nc1ccc2nc(-c3cccs3)[nH]c2c1)c1ccco1`, the Potency was inconclusive: 22.4 µM [inhibitor, partial curve, poor fit].
In the case of `COC(=O)c1c(NC(=O)Cc2cccs2)sc2c1CCCC2`, the Potency is reported as active: 14.1 µM.
In the case of `Cc1ccc(N(Cc2cccs2)C(=O)c2ccccc2)cc1`, the Potency is reported as inconclusive: 89.1 µM [inhibitor, partial curve, poor fit].
With `CC(C)OC(=O)c1cc(NC(=S)Nc2ccc([N+](=O)[O-])cc2)cc(C(=O)OC(C)C)c1` the Potency was inconclusive: 39.8 µM [inhibitor, partial curve, poor fit].
`Cn1c(N)c(C(=O)COC(=O)/C=C/c2ccccc2Cl)c(=O)n(C)c1=O` was tested, and the Potency was inconclusive: 12.6 µM [inhibitor, partial curve, poor fit].
For `Cc1sc2ncnc(N/N=C/c3cccc(O)c3)c2c1C`, the Potency was inconclusive: 25.1 µM [inhibitor, full curve].
`COc1ccccc1OCCn1c(SCC(N)=O)nc2ccccc21` was tested, and the Potency was inconclusive: 15.8 µM [inhibitor, full curve].
With `O=C(CSc1nc(-c2cccs2)cc(C(F)(F)F)n1)NCc1ccccc1` the “activity change, negative = inhibition” value was inactive: -0.566%.
In the case of `N#CC1=C(N)SC(N)=C(C#N)C1c1ccnc2ccccc12`, the Potency is reported as inconclusive: 17.8 µM [inhibitor, partial curve, poor fit].
With `CCCCN(C(=O)C1CC(=O)N(c2ccc3c(c2)OCCO3)C1)c1c(N)n(CCC)c(=O)[nH]c1=O` (stereo not drawn) the Potency was inconclusive: 0.891 µM [inhibitor, partial curve, poor fit].
For `Cc1cc(Br)ccc1NC(=O)CNC(=O)Cc1ccc(S(=O)(=O)N2CCOCC2)s1`, the Potency was inconclusive: 17.8 µM [inhibitor, partial curve, poor fit].
With `NC(=O)c1nsc(C(=O)N(Cc2ccco2)C(C(=O)NCC2CCCO2)c2ccc(O)cc2)c1N` (stereo not drawn) the Potency was inconclusive: 89.1 µM [inhibitor, partial curve, poor fit].
In the case of `CSC1=NNC(c2ccc(C(C)(C)C)cc2)=NN1`, the Potency is reported as inconclusive: 112 µM [inhibitor, partial curve, poor fit].
In the case of `Cc1c(C)n(Cc2ccccc2)c2ccc(C(=O)NCCCN3CCOCC3)cc12`, the Potency is reported as inconclusive: 89.1 µM [inhibitor, partial curve, poor fit].
`CCOc1ccc(Nc2nc(Cc3nnc(SCC(=O)O)o3)cs2)cc1` was tested, and the Potency was active: 50.1 µM.
In the case of `O=C(NCCc1ccco1)c1ccc(OCc2cn3ccccc3n2)cc1`, the Potency is reported as inconclusive: 25.1 µM [inhibitor, full curve].
For `O=C(N/N=C/c1ccc(O)c(O)c1)c1ccc(CSc2cccc3cccnc23)cc1`, the Potency was active: 3.55 µM.
In the case of `CCOC(=O)C1CC(=O)c2cc(OC)c(OC)cc2C1` (stereo not drawn), the Potency is reported as inconclusive: 89.1 µM [inhibitor, single point].
For `CCOC(=O)C1CCN(C(=O)C(=O)Nc2ccc3nc4n(c(=O)c3c2)CCCCC4)CC1`, the “activity change, negative = inhibition” value was inactive: 0.216%.
With `O=C(O)c1ccc(OCC(O)Cn2cnc3ccccc32)cc1` (stereo not drawn) the Potency was inconclusive: 79.4 µM [inhibitor, partial curve, poor fit].
For `O=C1c2ccc3c4c(ccc(c24)C(=O)N1c1ccc(O)cc1)C(=O)N(c1ccc(O)cc1)C3=O`, the Potency was inconclusive: 3.16 µM [inhibitor, full curve, poor fit].
For `O=C(CCS(=O)(=O)c1ccc(Br)cc1)N1CCN(c2ccccc2)CC1`, the Potency was inconclusive: 31.6 µM [inhibitor, single point].
With `COc1ccc(-c2csc(NC(=O)c3ccccc3NS(=O)(=O)c3ccc(F)c(F)c3)n2)cc1` the Potency was inconclusive: 56.2 µM [inhibitor, partial curve, poor fit].
For `COc1ccc(NS(=O)(=O)c2ccc(O)c(NC(=O)c3ccc(S(=O)(=O)N4CCCC4)cc3)c2)cc1`, the Potency was inconclusive: 89.1 µM [inhibitor, single point].
In the case of `Cc1nc(N)sc1N=Nc1ccccc1C(F)(F)F`, the Potency is reported as inconclusive: 50.1 µM [inhibitor, full curve, poor fit].
For `Cc1ccc(-c2nnc(Nc3ccc(C(=O)N(C)C)cc3)c3ccccc23)cc1S(=O)(=O)NCC1CCCO1` (stereo not drawn), the Potency was inconclusive: 39.8 µM [inhibitor, partial curve, poor fit].
With `C=CCn1cc(/C=N/NC(=O)COc2cccc3cccnc23)c2ccccc21` the Potency was inconclusive: 22.4 µM [inhibitor, partial curve, poor fit].
In the case of `CCOc1ccccc1C1C(C#N)=C(N)Oc2n[nH]c(CC)c21` (stereo not drawn), the “activity change, negative = inhibition” value is reported as inactive: -10.5%.
`c1ccc(OCc2nnc3sc(-c4cccs4)nn23)cc1` was tested, and the Potency was inconclusive: 28.2 µM [inhibitor, partial curve].
In the case of `C[C@H](NC(=O)c1ncn(Cc2ccccc2)c1C(=O)N[C@@H](C)c1ccccc1)c1ccccc1`, the Potency is reported as inconclusive: 79.4 µM [inhibitor, partial curve, poor fit].
In the case of `Fc1ccccc1N1CCN(CC2CCCCC2)CC1`, the “activity change, negative = inhibition” value is reported as inactive: -1.48%.
For `Cc1ccc(CNC(=O)c2cc3cc(C)ccc3n2C)cc1`, the “activity change, negative = inhibition” value was inactive: -16.9%.
In the case of `CCNC(=O)c1ccccc1SCC(=O)Nc1ccc(F)cc1`, the “activity change, negative = inhibition” value is reported as inactive: -2.56%.
`O=C(CCCCCn1c(=O)[nH]c2ccccc2c1=O)NCCc1ccccc1` was tested, and the “activity change, negative = inhibition” value was inactive: 0.674%.
In the case of `COc1ccc(Cl)cc1NC(=O)C(OC)c1ccccc1` (stereo not drawn), the Potency is reported as inconclusive: 39.8 µM [inhibitor, partial curve, poor fit].
With `C[C@@H]1CN([C@@H](C)CO)C(=O)c2cccc(NC(=O)C3CCCCC3)c2O[C@@H]1CN(C)Cc1ccc(Cl)c(Cl)c1` the Potency was inconclusive: 56.2 µM [inhibitor, partial curve, poor fit].
`Cc1ccccc1OCCC(=O)Nc1cc(S(=O)(=O)N2CCCCC2)ccc1N1CCN(C)CC1` was tested, and the Potency was inconclusive: 79.4 µM [inhibitor, partial curve, poor fit].
`O=C(Nc1cnn(Cc2ccc(F)cc2)c1)C(c1ccccc1)c1ccccc1` was tested, and the “activity change, negative = inhibition” value was inactive: -8.6%.
With `CC(C)(C)C(C(=O)n1cccc1C#N)c1ccccc1` (stereo not drawn) the Potency was inconclusive: 79.4 µM [inhibitor, partial curve, poor fit].
In the case of `N#CCC(=O)N/N=C/c1coc2ccccc2c1=O`, the Potency is reported as inconclusive: 79.4 µM [inhibitor, partial curve].
`CCN(CC)C(=O)COC(=O)c1cc(-c2ccco2)nc2ccccc12` was tested, and the Potency was active: 39.8 µM.
In the case of `Cn1c(NCc2ccco2)nc2c1c(=O)n(Cc1ccc(Cl)cc1)c(=O)n2C`, the Potency is reported as inconclusive: 15.8 µM [inhibitor, partial curve].
In the case of `CCc1ccc(CNC(=O)CN2C(=O)CSc3ccc(S(=O)(=O)N4CCOCC4)cc32)cc1`, the “activity change, negative = inhibition” value is reported as inactive: -1.31%.
For `COc1ccc(OC)c2c(C)cc(N3CCN(C(=O)c4ccc(C)cc4)CC3)nc12`, the Potency was inconclusive: 89.1 µM [inhibitor, partial curve, poor fit].
For `O=C(O)CC/C(=C/c1cccc(NC(=O)c2ccccc2Cl)c1)c1nc2ccccc2s1`, the Potency was inconclusive: 56.2 µM [inhibitor, partial curve, poor fit].
`CC(=O)Nc1ccc(S(=O)(=O)NCC(=O)OCC(=O)Nc2sccc2C(N)=O)cc1` was tested, and the Potency was inconclusive: 25.1 µM [inhibitor, partial curve, poor fit].
With `O=C(CC1(O)C(=O)N(CCc2ccccc2)c2ccccc21)c1ccco1` (stereo not drawn) the Potency was inconclusive: 28.2 µM [inhibitor, partial curve, poor fit].
With `COc1ccc(CCNC(=O)C(=O)NCC(c2ccco2)S(=O)(=O)c2cccs2)cc1` (stereo not drawn) the “activity change, negative = inhibition” value was inactive: -17.9%.
With `C/C(=N/NC(=O)c1cc2ccccc2cc1O)C1C(=O)c2ccccc2C1=O` the Potency was active: 14.1 µM.
`CCOc1ccc(NC(=O)Cn2cc(C(=O)c3ccc(F)cc3)c(=O)c3cc4c(cc32)OCO4)cc1` was tested, and the “activity change, negative = inhibition” value was inactive: -2.28%.
In the case of `CN(C)S(=O)(=O)c1cccc(COC(=O)c2ccc(Cl)cc2O)c1`, the Potency is reported as inconclusive: 89.1 µM [inhibitor, partial curve, poor fit].
In the case of `COc1cccc(N=Nc2c(N)[nH]n3c(=O)cc(-c4ccccc4)nc23)c1`, the Potency is reported as inconclusive: 28.2 µM [inhibitor, partial curve].
For `CC(=O)c1c2c3c(cccc3n(C)c1=O)C(=O)c1ccccc1-2`, the Potency was inconclusive: 31.6 µM [inhibitor, partial curve, poor fit].
For `O=S(=O)(c1ccccc1F)N(Cc1ccco1)Cc1nnc(-c2ccccc2Br)o1`, the Potency was inconclusive: 44.7 µM [inhibitor, partial curve, poor fit].
`O=S(=O)(Nc1ccc2c(c1)OCCO2)c1ccc(F)c(F)c1` was tested, and the Potency was inconclusive: 50.1 µM [inhibitor, full curve, poor fit].
With `CC(=O)NCc1ccc(C(=O)COC(=O)COc2ccccc2)s1` the Potency was active: 22.4 µM.
In the case of `CC(=O)Nc1ccc(S(=O)(=O)N2CCC(N3CCN(Cc4ccc(C)cc4)C(=O)C3=O)CC2)cc1`, the Potency is reported as inconclusive: 100 µM [inhibitor, partial curve, poor fit].
With `CCCc1cc(=O)[nH]c(SCC(=O)Nc2sc3c(c2C#N)CCC(C)C3)n1` (stereo not drawn) the Potency was active: 25.1 µM.
`CN(C)c1ccc(C(=O)Nc2sc(Nc3ccccc3)nc2C(N)=O)cc1` was tested, and the Potency was inconclusive: 44.7 µM [inhibitor, partial curve].
With `CCOC(=O)c1ccc(NC(=O)Nc2ccc3snnc3c2)cc1` the “activity change, negative = inhibition” value was inactive: 0.963%.
`CC(C)C1OC2(C)OC(=N)C1(C#N)C(C#N)(C#N)C2c1ccccc1` (stereo not drawn) was tested, and the Potency was inconclusive: 89.1 µM [inhibitor, partial curve].
For `CNc1ccc(Br)cc(C(=O)/C=C/c2ccc(OC)cc2)c1=O`, the Potency was inconclusive: 44.7 µM [inhibitor, partial curve].
For `N#C/C(=C(/O)COC(=O)c1ccc2c(c1)OCCO2)c1nc2ccccc2[nH]1`, the Potency was inconclusive: 39.8 µM [inhibitor, partial curve, poor fit].
